Reference: PubChem BioAssay AID2546 (National Center for Advancing Translational Sciences (NCATS), 2010)
Several values for one entry are separate records, joined by “and”; a condition that tells them apart may be missing. Identical values can stand only once. Out of some 310,000 compounds screened, about 11,000 (3.5%) were called active. The shares of active, inactive and inconclusive entries below differ from those in the screen. Calls follow the shape of the dose curve; as a rule, active = well fitted inhibition curve with a large enough effect; inconclusive = small, poorly fitted or top-dose-only effect, or effect the other way; inactive = flat fitted curve, though single readings scatter. Potencies beside an inconclusive call are fits to weak or partial responses and may not hold up.

Test: VP16 counterscreen qHTS for inhibitors of ROR gamma transcriptional activity;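 also: Gal4-VP16 expression switched on by copper sulfate through the metallothionein promoter; nearly all actives have a fitted effect of over 50% in size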
Settings: Drosophila S2 Gal4-VP16 UAS-luciferase, luminescence, 20 h; series mostly up to 53.6 µM
Potency is read from the fitted curve at half-maximal effect; tags tell the direction and shape of the fitted curve.

SMILES | Potency
O=C(Nc1ccc(Cl)cc1)Nc1cccc(C(=O)O)c1 | active: 1.41 µM
CCc1ccc2[nH]c(O)c(N=Nc3nc(-c4ccccc4)cs3)c2c1 | inconclusive: 22.4 µM [inhibitor, single point]
O=C(NC(Nc1nc2ccc([N+](=O)[O-])cc2s1)(C(F)(F)F)C(F)(F)F)c1ccccc1Cl | active: 0.891 µM
O=C(CCl)N(c1ccccc1)c1ccccc1 | inconclusive: 35.5 µM [inhibitor, single point]
CC(=O)N1CCN(c2nc3ccc(Br)cc3s2)CC1 | inconclusive: 4.47 µM [inhibitor, single point]
CC1CC(C)(C)NC(=S)N1CCC(=O)NCCc1ccc(Cl)cc1 (configuration not stated) | active: 7.94 µM
COc1ccc(CCn2c(=N)c(C(=O)NC3CCCCC3)cc3c(=O)n4ccccc4nc32)cc1 | inconclusive: 35.5 µM [inhibitor, single point]
COc1ccc(N2CCN(C(=O)CC34CC5CC(CC(C5)C3)C4)CC2)c([N+](=O)[O-])c1 | inconclusive: 25.1 µM [inhibitor, single point]
Cn1c(C(=O)N2CCC(C(=O)NCc3ccccc3)CC2)cc2sccc21 | inactive
CC(C)N1C(=O)/C(=C\c2nc3ccccc3c(=O)n2-c2ccccc2)c2ccccc21 | inconclusive: 25.1 µM [inhibitor, single point]
CCN1CCCC1CNC(=O)C1CCN(Cc2nc(-c3cccc(Br)c3)oc2C)CC1 (configuration not stated) | inactive
CCOC(=O)CN1C(=O)N[C@H](c2ccc(Br)cc2)C(C(C)=O)=C1C | inactive
Cc1ccsc1/C=N/NC(=O)c1ccc2c(c1)OCCO2 | inactive
COc1ccc(-n2c3c(c(=O)[nH]c2=O)C(C(F)(F)F)(C(F)(F)F)N=C(CC(C)C)N3)cc1 | inactive
COc1ccccc1CNc1cc(-c2ccccc2OC)ncn1 | inactive
Cn1c(CCNC(=O)c2ccco2)nc2cc(NS(=O)(=O)c3ccc(Cl)cc3)ccc21 | inactive
CCOC(=O)C1=C(C)OC(N)=C(C#N)C1c1c(C)nn(-c2ccccc2)c1Cl (configuration not stated) | inconclusive: 4.47 µM [inhibitor, single point]
COCCn1c(N)c(C(=O)OCc2ccccc2)c2nc3ccccc3nc21 | active: 14.1 µM
O=C(NCCc1cccs1)c1ccc(Cl)cc1 | inconclusive: 11.2 µM [inhibitor, partial curve]
CC(=O)N(C)c1ccc(NC(=S)Nc2ccc(C(C)C)cc2)cc1 | active: 22.4 µM
Cn1c(=O)c2c(nc(SCC(=O)c3ccccc3F)n2C)n(C)c1=O | inactive
CC1CCN(c2ccc(-c3cccc(NC(=O)C(F)(F)F)c3)nn2)CC1 | active: 2.82 µM
CC(C)=CCc1c2c(c3occ(-c4ccc(O)cc4)c(=O)c3c1O)C=CC(C)(C)O2 | inconclusive: 35.5 µM [inhibitor, single point] and inconclusive: 22.4 µM [inhibitor, single point]
COc1cc(/C=N/Nc2nc3ccccc3s2)ccc1OC(=O)c1ccccc1F | inconclusive: 35.5 µM [inhibitor, single point]

SMILES | Potency
Cc1ccc(-c2cc(C(=O)N3CCCCC3)c3ccccc3n2)cc1C | inconclusive: 22.4 µM [inhibitor, single point]
CCCOc1ccc(C(=O)NNC(=S)NC(=O)c2ccccc2)cc1 | inconclusive: 20 µM [inhibitor, single point]
CCC(C)NS(=O)(=O)c1ccc(S(=O)(=O)N2CC=C(c3ccc(F)cc3)CC2)cc1 (configuration not stated) | inconclusive: 35.5 µM [inhibitor, single point]
O=C(Nc1ccc(N2CCOCC2)cc1)Nc1ccc2nc(-c3ccco3)c(-c3ccco3)nc2c1 | inconclusive: 35.5 µM [inhibitor, single point]
S=C(Nc1ccccc1)Nc1ccc(OCc2ccc(Cl)cc2Cl)cc1 | active: 7.08 µM
O=C(c1cc([N+](=O)[O-])ccc1Cl)N1CCN(c2ccc([N+](=O)[O-])cc2)CC1 | inconclusive: 0.794 µM [inhibitor, partial curve, poor fit]
COc1ccc(CNS(=O)(=O)c2ccc3c(c2)CC(C)N3C(=O)C2CC2)cc1 (configuration not stated) | active: 17.8 µM
C=CCN(CC=C)C(=S)NC(=O)c1ccc([N+](=O)[O-])cc1 | active: 0.126 µM
CCn1c(C)cc(/C=C2/SC(=O)N(C(C)C(=O)OC)C2=O)c1C (configuration not stated) | inactive
Cc1cc2cc(CCNC(=O)c3ccc(C)c([N+](=O)[O-])c3)c(=O)[nH]c2cc1C | inactive
CC(C)CN1CCNC(=O)C1CC(=O)NCc1cnn(-c2cccc(F)c2)c1 (configuration not stated) | inactive
O=C(O)c1cn(CCOc2ccccc2Cl)c2ccccc12 | inconclusive: 8.91 µM [inhibitor, partial curve]
CCOc1ccccc1CN(CCc1ccc2c(c1)OCO2)Cc1ccccn1 | inconclusive: 15.8 µM [inhibitor, single point]
CCCOc1ccc(-c2nnc(-c3cccs3)o2)cc1 | inconclusive: 31.6 µM [inhibitor, single point]
O=C(CCSc1ccccc1)Nc1ccccc1C(=O)N1CCCC1 | inconclusive: 12.6 µM [inhibitor, partial curve]
Nc1ncnc(Sc2ncccn2)c1[N+](=O)[O-] | active: 7.08 µM
C=CCc1cccc(CNc2nc3ccccc3n2CCC)c1O | inconclusive: 35.5 µM [inhibitor, single point]
NNC(=O)Nc1cccc(C(F)(F)F)c1 | inactive
CN(C)C(=O)C[n+]1cccc(/C=N/O)c1 | inconclusive: 5.62 µM [activator, single point]
O=C(Nc1ccc2c(c1)OCCO2)C(=O)NC1CC1 | inconclusive: 12.6 µM [inhibitor, single point]
CCNC(=S)NS(=O)(=O)c1ccc(CC)cc1 | inconclusive: 35.5 µM [inhibitor, single point]
CC1CCN(c2ccc(NC(=S)NC(=O)c3ccc(-c4cccc([N+](=O)[O-])c4)o3)cc2)CC1 | active: 7.08 µM
CCOc1ccc(/C=C2\NC(=S)NC2=O)cc1 | inconclusive: 22.4 µM [inhibitor, single point]
